Reference: article PMC5695864

Experiments:
[1] = biological target: S2G2-rituximab (28), non-fucosylated sialyl complex type glycoform of rituximab (human); experiment: SPR
[2] = biological target: GlcNAc-rituximab (27) (human); experiment: SPR

| Kd [1] [µM] | Kd [2] [µM] | Substance |
| --- | --- | --- |
| 0.0022 |  | FcγRIIIA-V158 (sequence not shown) (receptor; modification not given; non-fucosylated sialylated biantennary complex type N-glycan (S2G2) at Asn-297) |
|  | 0.784 | FcγRIIIA-V158 (sequence not shown) (receptor; modification not given; only the innermost GlcNAc at Asn-297 (no fucose)) |
